# Laboratory results from patent US8466115B2, “Spirocyclic isoxazoline derivatives as antiparasitic agents” (Zoetis LLC, priority 2011, dated 2013).
# Some results were stated once for a whole list of compounds, not compound by compound.
# Tested on: Soft Tick (Ornithidorus turicata)
# Experiment: Soft Tick (Ornithidorus turicata) Blood Feed Assay
# Assay type: in vivo
# Details: nymph stage ticks fed on treated citrated bovine blood; paralysis and/or death at approximately 24, 48 and 72 hours
row,Molecule,LD100 [µg/mL]
1,"5′-(5-(3,5-dichloro-4-fluorophenyl)-5-(trifluoromethyl)-4,5-dihydroisoxazol-3-yl)-1-(4,4,4-trifluorobutanoyl)-3′H-spiro[azetidine-3,1′-isobenzofuran]-3′-one [Example 28]",≤ 0.03
2,"CC(C)CC(=O)N1CC2(C1)OC(=O)c1cc(C3=NOC(c4cc(Cl)c(F)c(Cl)c4)(C(F)(F)F)C3)ccc12 (centres unmarked) [Example 11, 5′-(5-(3,5-dichloro-4-fluorophenyl)-5-(trifluoromethyl)-4,5-dihydroisoxazol-3-yl)-1-(3-methylbutanoyl)-3′H-spiro[azetidine-3,1-isobenzofuran]-3′-one]",≤ 0.1
3,"CS(=O)(=O)CC(=O)N1CC2(C1)OCc1cc(C3=NOC(c4cc(Cl)c(Cl)c(Cl)c4)(C(F)(F)F)C3)ccc12 (centres unmarked) [Example 50, 2-(methylsulfonyl)-1-(5′-(5-(3,4,5-trichlorophenyl)-5-(trifluoromethyl)-4,5-dihydroisoxazol-3-yl)-3′H-spiro[azetidine-3,1′-isobenzofuran]-1-yl)ethanone]",≤ 0.03

# Tested on: Flea (Ctenocephalides felis)
# Experiment: Flea (Ctenocephalides felis) Membrane Feed Assay-Adult
# Assay type: in vivo
# Details: adult fleas fed on treated citrated bovine blood for approximately 2 hours; knockdown and/or death at approximately 2 and 24 hours
row,Molecule,lethal dose 80% (LD80) [µg/mL]
1,"5′-(5-(3,5-dichloro-4-fluorophenyl)-5-(trifluoromethyl)-4,5-dihydroisoxazol-3-yl)-1-(2-(1-hydroxycyclopropyl)acetyl)-3′H-spiro[azetidine-3,1′-isobenzofuran]-3′-one [Example 19]",≤ 30
2,"5′-(5-(3,5-dichloro-4-fluorophenyl)-5-(trifluoromethyl)-4,5-dihydroisoxazol-3-yl)-1-(4,4,4-trifluorobutanoyl)-3′H-spiro[azetidine-3,1′-isobenzofuran]-3′-one [Example 28]",≤ 1
3,"C[S+]([O-])CC(=O)N1CC2(C1)OCc1cc(C3=NOC(c4cc(Cl)c(F)c(Cl)c4)(C(F)(F)F)C3)ccc12 (stereo not drawn) [Example 8, Chiral-1-(5′-(5-(3,5-dichloro-4-fluorophenyl)-5-(trifluoromethyl)-4,5-dihydroisoxazol-3-yl)-3′H-spiro[azetidine-3,1′-isobenzofuran]-1-yl)-2-(methylsulfinyl)ethanone]",≤ 3
4,"O=C1OC2(CN(C(=O)C3CC3)C2)c2ccc(C3=NOC(c4cc(Cl)c(F)c(Cl)c4)(C(F)(F)F)C3)cc21 (centres unmarked) [Example 10, 1-(cyclopropanecarbonyl)-5′-(5-(3,5-dichloro-4-fluorophenyl)-5-(trifluoromethyl)-4,5-dihydroisoxazol-3-yl)-3′H-spiro[azetidine-3,1′-isobenzofuran]-3′-one]",≤ 3
5,"CC(C)CC(=O)N1CC2(C1)OC(=O)c1cc(C3=NOC(c4cc(Cl)c(F)c(Cl)c4)(C(F)(F)F)C3)ccc12 (centres unmarked) [Example 11, 5′-(5-(3,5-dichloro-4-fluorophenyl)-5-(trifluoromethyl)-4,5-dihydroisoxazol-3-yl)-1-(3-methylbutanoyl)-3′H-spiro[azetidine-3,1-isobenzofuran]-3′-one]",≤ 3
6,"CC(=O)N1CC2(C1)OC(=O)c1cc(C3=NOC(c4cc(Cl)c(F)c(Cl)c4)(C(F)(F)F)C3)ccc12 (centres unmarked) [Example 14, 1-acetyl-5′-(5-(3,5-dichloro-4-fluorophenyl)-5-(trifluoromethyl)-4,5-dihydroisoxazol-3-yl)-3′H-spiro[azetidine-3,1′-isobenzofuran]-3′-one]",≤ 30
7,"O=C1OC2(CN(C(=O)C3(O)CC3)C2)c2ccc(C3=NOC(c4cc(Cl)c(F)c(Cl)c4)(C(F)(F)F)C3)cc21 (centres unmarked) [Example 15, 5′-(5-(3,5-dichloro-4-fluorophenyl)-5-(trifluoromethyl)-4,5-dihydroisoxazol-3-yl)-1-(1-hydroxycyclopropanecarbonyl)-3′H-spiro[azetidine-3,1′-isobenzofuran]-3′-one]",≤ 30
8,"O=C1OC2(CN(C(=O)C3CCC3)C2)c2ccc(C3=NOC(c4cc(Cl)c(F)c(Cl)c4)(C(F)(F)F)C3)cc21 (centres unmarked) [Example 16, 1-(cyclobutanecarbonyl)-5′-(5-(3,5-dichloro-4-fluorophenyl)-5-(trifluoromethyl)-4,5-dihydroisoxazol-3-yl)-3′H-spiro[azetidine-3,1′-isobenzofuran]-3′-one]",≤ 30
9,"CC(C)(C)C(=O)N1CC2(C1)OC(=O)c1cc(C3=NOC(c4cc(Cl)c(F)c(Cl)c4)(C(F)(F)F)C3)ccc12 (centres unmarked) [Example 17, 5′-(5-(3,5-dichloro-4-fluorophenyl)-5-(trifluoromethyl)-4,5-dihydroisoxazol-3-yl)-1-piyaloyl-3′H-spiro[azetidine-3,1′-isobenzofuran]-3′-one]",≤ 30
10,"O=C1OC2(CN(C(=O)CO)C2)c2ccc(C3=NOC(c4cc(Cl)c(F)c(Cl)c4)(C(F)(F)F)C3)cc21 (centres unmarked) [Example 18, 5′-(5-(3,5-dichloro-4-fluorophenyl)-5-(trifluoromethyl)-4,5-dihydroisoxazol-3-yl)-1-(2-hydroxyacetyl)-3′H-spiro[azetidine-3,1′-isobenzofuran]-3′-one]",≤ 30
11,"CCCC(=O)N1CC2(C1)OC(=O)c1cc(C3=NOC(c4cc(Cl)c(F)c(Cl)c4)(C(F)(F)F)C3)ccc12 (centres unmarked) [Example 20, 1-butyryl-5′-(5-(3,5-dichloro-4-fluorophenyl)-5-(trifluoromethyl)-4,5-dihydroisoxazol-3-yl)-3′H-spiro[azetidine-3,1′-isobenzofuran]-3′-one]",≤ 1
12,"Cc1ccn(CC(=O)N2CC3(C2)OC(=O)c2cc(C4=NOC(c5cc(Cl)c(F)c(Cl)c5)(C(F)(F)F)C4)ccc23)n1 (centres unmarked) [Example 25, 5′-(5-(3,5-dichloro-4-fluorophenyl)-5-(trifluoromethyl)-4,5-dihydroisoxazol-3-yl)-1-(2-(3-methyl-1H-pyrazol-1-yl)acetyl)-3′H-spiro[azetidine-3,1′-isobenzofuran]-3′-one]",≤ 30
13,"CS(=O)(=O)CC(=O)N1CC2(C1)OCc1cc(C3=NOC(c4cc(Cl)c(F)c(Cl)c4)(C(F)(F)F)C3)ccc12 (stereo not drawn) [Example 48b, Chiral-1-(5′-(5-(3,5-dichloro-4-fluorophenyl)-5-(trifluoromethyl)-4,5-dihydroisoxazol-3-yl)-3′H-spiro[azetidine-3,1′-isobenzofuran]-1-yl)-2-(methylsulfonyl)ethanone]",≤ 3
14,"CS(=O)(=O)CC(=O)N1CC2(C1)NC(=O)c1cc(C3=NOC(c4cc(Cl)c(F)c(Cl)c4)(C(F)(F)F)C3)ccc12 (centres unmarked) [Example 61, 5′-(5-(3,5-dichloro-4-fluorophenyl)-5-(trifluoromethyl)-4,5-dihydroisoxazol-3-yl)-1-(2-(methylsulfonyl)acetyl)spiro[azetidine-3,1′-isoindolin]-3′-one]",≤ 100
15,"O=C1NC2(CN(C(=O)C3CC3)C2)c2ccc(C3=NOC(c4cc(Cl)c(F)c(Cl)c4)(C(F)(F)F)C3)cc21 (centres unmarked) [Example 62, 1-(cyclopropanecarbonyl)-5′-(5-(3,5-dichloro-4-fluorophenyl)-5-(trifluoromethyl)-4,5-dihydroisoxazol-3-yl)spiro[azetidine-3,1′-isoindolin]-3′-one]",≤ 100
16,"CS(=O)(=O)CC(=O)N1CC2(C1)NC(=O)c1cc(C3=NOC(c4cc(Cl)c(Cl)c(C(F)(F)F)c4)(C(F)(F)F)C3)ccc12 (centres unmarked) [Example 63, 5′-(5-(3,4-dichloro-5-(trifluoromethyl)phenyl)-5-(trifluoromethyl)-4,5-dihydroisoxazol-3-yl)-1-(2-(methylsulfonyl)acetyl)spiro[azetidine-3,1′-isoindolin]-3′-one]",≤ 100
17,"CS(=O)(=O)CC(=O)N1CC2(C1)NC(=O)c1cc(C3=NOC(c4cc(Cl)c(Cl)c(Cl)c4)(C(F)(F)F)C3)ccc12 (centres unmarked) [Example 64, 1-(2-(methylsulfonyl)acetyl)-5′-(5-(3,4,5-trichlorophenyl)-5-(trifluoromethyl)-4,5-dihydroisoxazol-3-yl)spiro[azetidine-3,1′-isoindolin]-3′-one]",≤ 100
